Data: PubChem BioAssay AID1671194 (National Center for Advancing Translational Sciences (NCATS), 2021)
The campaign covered roughly 140,000 compounds. About 240 (0.17%) were called active. The shares of active, inactive and inconclusive entries below differ from those in the screen. The call rests on the fitted dose curve; in most records, active means well fitted inhibition curve with a large enough effect; inconclusive means small, poorly fitted or top-dose-only effect; inactive means no such curve, though single readings can be large or run the other way. Potencies of inconclusive entries are doubtful fits and often do not repeat.

Assay: Primary qHTS assay for inhibitors of alpha-synuclein gene (SNCA) expression; further: nearly all actives have a fitted effect of over 45% in size;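 on activity change, negative = inhibition: plate controls were DMSO cells for no effect and cell-free wells for full effect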
Conditions: HEK-293 SNCA-luciferase knock-in, luminescence, 24 h; activity change, negative = inhibition: at 57.2 µM (top of the series) unless noted
Potency means the concentration at half of the fitted maximal effect; tags describe the fitted curve by direction and shape.

Potency, inconclusive:
CCc1ccc(C(=O)N2CCN(c3cc(-c4ccc(OC)cc4)[nH]n3)CC2)cc1 39.8 µM [inhibitor, single point]
O=C(CCCc1c[nH]c2ccccc12)N1CCC(c2noc(COc3ccc(F)cc3)n2)CC1 14.1 µM [inhibitor, partial curve]
COc1ccc(OCC2(C)COc3ccc(C(=O)NCC(C)C)cc3N2)cc1 (stereo not drawn) 56.2 µM [inhibitor, single point]
CCOC(=O)c1cc(-c2ccc(OC)cc2)n(CCC(=O)Nc2ccc(OC)cc2OC)c1C 28.2 µM [inhibitor, single point]
Cc1ncoc1C(=O)N1CC[C@H](CO)[C@H](NC(=O)c2ccccc2)C1 39.8 µM [inhibitor, single point]
Cc1cccc(-n2ncc3c(N4CCN(CCO)CC4)ncnc32)c1 39.8 µM [inhibitor, single point]
CN(C)c1ccc(-c2nnnn2[C@H]2CO[C@H]3[C@@H]2OC[C@@H]3NC(=O)Nc2ccc(Oc3ccccc3)cc2)cc1 39.8 µM [inhibitor, single point]
CC1CCN(S(=O)(=O)c2ccc3nc(Nc4cccc(C(F)(F)F)c4)ccc3c2)CC1 25.1 µM [inhibitor, single point]
COc1cccc(-c2nc(SCC(=O)NC3CCCC3)c(-c3ccc(F)cc3)[nH]2)c1 39.8 µM [inhibitor, single point]
COc1ccc(C(=O)N2CCN(C(=O)c3nnn4c3COC(c3ccc(Cl)cc3)C4)CC2)cc1 (stereo not drawn) 28.2 µM [inhibitor, single point]
CN1C(=O)CC(C(=O)O)C12CCN(Cc1ncccn1)CC2 (stereo not drawn) 8.91 µM [inhibitor, single point]
O=C1c2[nH]nc(-c3ccccc3O)c2C(c2ccc(Cl)cc2)N1CCc1ccccc1 (stereo not drawn) 39.8 µM [inhibitor, single point]
COc1cc(OC)cc(-c2cc3nc(C)c(CCC(=O)Nc4ccc(F)c(Cl)c4)c(C)n3n2)c1 7.08 µM [inhibitor, full curve, poor fit]
O=C(c1csc2nc(-c3cccc(C(F)(F)F)c3)cn12)N1CCN2CCCC2C1 (stereo not drawn) 39.8 µM [inhibitor, single point]
CC(C)NC(=O)N1CCOC2(CCN(C(=O)Cc3ccc(O)cc3)CC2)C1 8.91 µM [inhibitor, single point]
CC(C)CNC(=O)N1CCC(F)(C(=O)NCc2ccccc2)CC1 2.51 µM [inhibitor, full curve]
CCc1cccc(NC(=O)c2c(N3CCCC3=O)c3cc(C)ccc3n2C)c1 39.8 µM [inhibitor, single point]
COc1ccc(Nc2cc3c(cn2)CN(CCc2ccccc2)CCN3)cn1 17.8 µM [inhibitor, partial curve, poor fit]
O=C(c1ccc2c(c1)N(Cc1ccc(Cl)cc1)C(=O)c1ccccc1S2(=O)=O)N1CCC(Cc2ccccc2)CC1 17.8 µM [inhibitor, partial curve, poor fit]
O=C([C@@H]1CNC[C@H](C(=O)N2CCC(c3ccncn3)CC2)C1)N1CCCC1 10 µM [inhibitor, partial curve, poor fit]
CCOc1ccc(NC(=O)CSC2=Nc3ccccc3C3=NC(CC(=O)NCc4ccccc4OC)C(=O)N23)cc1 (stereo not drawn) 25.1 µM [inhibitor, single point]
O=C(c1ccc2c(c1)N(Cc1ccc(F)cc1)C(=O)c1ccccc1S2(=O)=O)N1CCCCCC1 39.8 µM [inhibitor, single point]
Cc1ccc(C)c(N2CCN(C(=O)C3CCN(C(=O)c4cc5sccc5n4C)CC3)CC2)c1 25.1 µM [inhibitor, partial curve, poor fit]
Cc1ccc(NC(=O)CSc2nc3c(c(=O)[nH]2)CCC3)cc1Cl 7.08 µM [inhibitor, single point]
CCN(CC)c1ccc(C(=O)NCc2nnc3cc(-c4nc(C)no4)ccn23)cc1 6.31 µM [inhibitor, single point]
CCOC(=O)C1=C(C)N=C2SC=C(CC(=O)N3CCC(C)CC3)N2C1c1ccccc1F (stereo not drawn) 3.55 µM [inhibitor, partial curve, poor fit]
COCCn1c(=O)c(-c2ccc(OC)cc2)nc2cnc(Nc3cccc(OC)c3)nc21 5.62 µM [inhibitor, full curve, poor fit]
CCN1c2cc(C(=O)Nc3ccc(C(C)C)cc3)ccc2C(=O)N2CCCCCC21 (stereo not drawn) 39.8 µM [inhibitor, single point]
O=C(O)CCn1ncc2cc(OCc3ccc(-c4cncnc4)cc3)ccc21 6.31 µM [inhibitor, single point]
COc1ccc(NC(=O)CCCSc2nc(-c3ccco3)cc(C(F)(F)F)n2)cc1 3.55 µM [inhibitor, full curve]
Cc1ccccc1C(=O)Nc1sc2c(c1C(=O)O)CCC(C(C)(C)C)C2 (stereo not drawn) 2.51 µM [inhibitor, partial curve, poor fit]
O=C(COc1ccccc1)N1CCOc2ccc(CN3CCc4ccccc4C3)cc2C1 17.8 µM [inhibitor, single point]
FC(F)(F)c1ccc(CN2CC[C@H](c3nc4ccc(C(F)(F)F)cc4[nH]3)C2)cc1 35.5 µM [inhibitor, single point]
O=C(CSc1ccccc1)N1CCc2c([nH]c3ccccc23)C1c1ccc(Cl)cc1 (stereo not drawn) 12.6 µM [inhibitor, partial curve, poor fit]
CCCCN(C)C(=O)Cc1cccn1-c1cccc(Cl)c1 39.8 µM [inhibitor, single point]
COCCn1cnc2ccc(-c3cccc(C(F)(F)F)c3)nc2c1=O 56.2 µM [inhibitor, single point]
COc1ccc(C(=O)c2cnc3ccc(C)cc3c2S(=O)(=O)c2ccccc2)cc1 15.8 µM [inhibitor, partial curve, poor fit]
CC(C(=O)N1CCN(c2cc(-c3ccc(Cl)cc3)[nH]n2)CC1)c1ccccc1 (stereo not drawn) 12.6 µM [inhibitor, partial curve, poor fit]
Cc1ccc(NC(=O)c2cc(S(=O)(=O)NC3CCCCCC3)ccc2F)cc1F 39.8 µM [inhibitor, single point]
CCOc1ccccc1CN1C[C@@H](CO)[C@H](NC(=O)c2cccnc2)C1 14.1 µM [inhibitor, single point]
CCn1cc(S(=O)(=O)N2CCCC(Cc3noc(-c4cccnc4)n3)C2)cn1 (stereo not drawn) 14.1 µM [inhibitor, partial curve, poor fit]
CCOC(=O)c1sc(NC(=O)c2cc3nc(-c4ccc(Br)cc4)cc(C(F)(F)F)n3n2)c(C(=O)OCC)c1C 31.6 µM [inhibitor, single point]
O=C(NCCCc1ccccc1)C1CCN(c2nccc(Nc3ccccc3F)n2)CC1 17.8 µM [inhibitor, single point]
COc1ccccc1C(=O)Nc1ccc(C(=O)OCc2cc(=O)n3ccsc3n2)cc1 14.1 µM [inhibitor, single point]
CC(=O)Oc1ccccc1C(=O)O 5.41 µM [inhibitor, full curve, poor fit]
COCC1CN(C2CCC2)CC12CCN(C(=O)COc1cccc(C)c1)CC2 (stereo not drawn) 17.8 µM [inhibitor, single point]

Potency, inactive:
O=C(O)c1ccc(-c2nc3ncccc3[nH]2)cc1

Activity change, negative = inhibition, inactive:
Cc1ccccc1N(C)C1CN(Cc2ccccc2)C1 5.41% [at 87.6 µM]
COc1ccc2[nH]c3c(c2c1)CCN(C)C31CCN(C(=O)c2cc(C)[nH]n2)CC1 62.6%
COc1ccc(C(=O)N[C@@H]2CN(c3ncccn3)C[C@H]2CN(C)C)cn1 11.4%
COCC(=O)Nc1ccc(-c2noc([C@@H]3CCCN3CC(C)C)n2)cn1 10% [at 87.6 µM]
COc1ccccc1C(=O)Nc1cc(C2CCCC2)nn1C 15.3% [at 87.6 µM]
CCC(=O)N(C1CCOCC1)C1CCN(Cc2ccc(OC)cc2OC)CC1 -11.3%
COc1ccc(C2Cn3nnc(C(=O)N4CCN(C(=O)Cc5ccccc5C)CC4)c3CO2)cc1 (stereo not drawn) -24%
CC(NC(=O)C1CCN(C(=O)c2ncn3c2COC(c2ccc(F)cc2)C3)CC1)c1ccc(F)cc1 (stereo not drawn) 7.27%
O=C1CO[C@H]2CCN(Cc3ccc4c(c3)CCO4)CC[C@@H]2N1Cc1ccc(O)cc1 7.93% [at 87.6 µM]
N#CC1CCN(C(=O)c2nc3sccn3c2Br)CC1 -3.54% [at 87.6 µM]
CCc1ccccc1OCCN(C)Cc1ncc[nH]1 -0.521%
CCS(=O)(=O)N1C[C@@H]2CN(Cc3coc(C)n3)C[C@]2(C(=O)O)C1 36.7%
c1cc(-c2nc(-c3ccc(OC4CNC4)cc3)no2)ccn1 64.7%
O=C(CN1CC2CC(C1)[C@H]1CCCC(=O)N1C2)NCc1ccccc1F (stereo partly drawn) -0.658%
Cc1ccc(S(=O)(=O)N2CCC3(CC2)C(=O)N(CC(=O)NC(C)C)CN3c2ccccc2)cc1 -12.8%
COCCS(=O)(=O)c1ncc(CN(C)C(C)c2ccon2)n1Cc1ccccc1 (stereo not drawn) 27.9%
